Measured values from publication PMC4336329 (PLoS ONE, 2015).
Screen size: about 310,000 compounds; about 2,200 (0.71%) showed an effect of 50% or more. The effect is printed as a negative number. Some of the results follow.

What follows are molecules tested against human ether-à-go-go-related gene (hERG) potassium channel (human, UniProt Q12809) (assay: primary screen, population patch clamp on CHO cells stably expressing hERG).
Chain of human ether-à-go-go-related gene (hERG) potassium channel (Q12809 whole entry, looked up): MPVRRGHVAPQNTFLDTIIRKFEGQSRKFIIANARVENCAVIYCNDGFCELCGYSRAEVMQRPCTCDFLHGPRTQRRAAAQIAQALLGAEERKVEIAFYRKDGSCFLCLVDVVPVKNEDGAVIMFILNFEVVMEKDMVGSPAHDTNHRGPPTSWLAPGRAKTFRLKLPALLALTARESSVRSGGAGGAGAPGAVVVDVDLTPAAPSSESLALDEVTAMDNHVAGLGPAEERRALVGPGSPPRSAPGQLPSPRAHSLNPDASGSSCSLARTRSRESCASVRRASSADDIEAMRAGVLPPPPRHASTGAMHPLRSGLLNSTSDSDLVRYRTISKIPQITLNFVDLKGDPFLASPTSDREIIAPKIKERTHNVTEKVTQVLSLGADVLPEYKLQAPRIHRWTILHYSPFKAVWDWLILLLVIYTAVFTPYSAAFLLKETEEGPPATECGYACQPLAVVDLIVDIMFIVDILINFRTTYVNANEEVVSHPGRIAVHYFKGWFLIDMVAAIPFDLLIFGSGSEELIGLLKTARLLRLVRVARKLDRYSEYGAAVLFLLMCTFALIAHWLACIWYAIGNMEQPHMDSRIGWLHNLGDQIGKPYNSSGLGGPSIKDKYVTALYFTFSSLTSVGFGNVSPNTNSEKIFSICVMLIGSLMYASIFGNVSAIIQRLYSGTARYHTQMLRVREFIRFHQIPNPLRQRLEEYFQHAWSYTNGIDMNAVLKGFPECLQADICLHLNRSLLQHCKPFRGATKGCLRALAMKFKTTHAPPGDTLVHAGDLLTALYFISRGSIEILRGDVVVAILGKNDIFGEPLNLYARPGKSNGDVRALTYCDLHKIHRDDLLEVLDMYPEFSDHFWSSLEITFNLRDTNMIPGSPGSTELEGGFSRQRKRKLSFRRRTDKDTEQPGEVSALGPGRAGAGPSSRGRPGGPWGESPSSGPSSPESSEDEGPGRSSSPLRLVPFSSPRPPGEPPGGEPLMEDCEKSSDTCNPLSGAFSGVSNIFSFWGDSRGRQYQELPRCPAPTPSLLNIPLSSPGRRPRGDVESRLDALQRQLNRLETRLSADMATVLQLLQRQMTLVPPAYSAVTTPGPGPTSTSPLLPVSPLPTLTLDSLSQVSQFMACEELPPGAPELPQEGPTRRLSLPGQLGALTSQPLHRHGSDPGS

| SMILES | hERG current change (%, negative = inhibition) at 1uM [%] |
| --- | --- |
| N#C/C(=C/c1ccc(CNC(=O)C(=O)Nc2cc(Cl)cc(Cl)c2)o1)C(=O)NCc1cccnc1 | 6.53 |
| COc1ccc(C)cc1-n1nnnc1SCC(=O)c1cc(C)n(Cc2ccco2)c1C | -0.381 |
| Fc1ccc(C2N3CCCN23)cc1 (centres unmarked) | 11.3 |
| COc1ccccc1N1CCN(CCN2C(=O)C3CCCN3C2=O)CC1 (centres unmarked) | 19.2 |
| C=CCN1C(=O)C(O)(CC(=O)c2c(C)n[nH]c2C)c2cc(Br)ccc21 (centres unmarked) | 15.2 |
| O=C(NC(Cc1ccccc1)C(=O)O)/C(=C/c1ccc([N+](=O)[O-])cc1)NC(=O)c1ccccc1Br (centres unmarked) | -1.9 |
| CCCCC(=O)Nc1ccc(NC(=O)c2ccc(C)c([N+](=O)[O-])c2)cc1OC | 12.8 |
| O=C(CCc1ccccc1)Nc1nncs1 | 11.8 |
| O=C(N/N=C/c1ccncc1)/C(=C/c1ccccc1)NC(=O)c1ccccc1 | 12.6 |
| Cc1cc(Br)ccc1NC(=O)C1CCN(C(=O)c2ccco2)CC1 | 11.1 |
| COc1cc(C(=O)Nc2cc(C)cc(C)c2)c(-n2cnnn2)cc1OC | 10 |
| CCOC(=O)Cn1nnc2c(sc3nc4c(c(-c5ccc(Cl)cc5)c32)CCC4)c1=O | 9.51 |
| Cc1noc(C)c1COC(=O)c1cc(F)c(F)cc1Cl | 12.3 |
| Cc1[nH]c(=O)[nH]c(=O)c1/C=N/NC(=O)[C@H](C)NC(=O)OC(C)(C)C | -1.09 |
| Cc1ccc(C2=NN(CC(=O)O)C(=O)CC2)cc1 | -9.99 |
| CCN1C(=O)N(S(=O)(=O)C(F)(F)F)[C@@H](c2ccccc2)C(C(=O)OC)=C1C | 11.8 |
| O=C(NCCOC(=O)c1ccc(C(=O)OCCNC(=O)c2ccccc2)o1)c1ccccc1 | 12.1 |
| O=C(Cn1cc2c(n1)CCCC2)NCc1ccccn1 | 12 |
| CC1CCc2sc3c(c2C1)c1ncnn1c(=O)n3CC(=O)c1ccc(Br)cc1 (centres unmarked) | 15.7 |
| Cc1cc(C(=O)Nc2ccc(Cl)cc2)n(-c2ccccc2)n1 | 14.6 |
| C=CCn1c(SCc2cc([N+](=O)[O-])cc3c2OCOC3)nc2cc(C(=O)O)ccc2c1=O | 4.67 |
| Cc1nc(N2CCCCC2)c2ccsc2n1.O=C(O)C(=O)O | 1.34 |

| SMILES | hERG current change (%, negative = inhibition) at 1uM [%] |
| --- | --- |
| CC(NC(=O)CCN1N=C(c2ccccc2)CCC1=O)c1ccc2c(c1)OCCO2 (centres unmarked) | 12.4 |
| CCN1C[C@@]2(COC)C3[C@@H](OC)[C@H]4[C@@H]1[C@@]3(C1C[C@H]3[C@H](OC(=O)c5ccccc5)C1[C@]4(OC(C)=O)C[C@H]3OC)[C@@H](OC)C[C@H]2O (some centres unmarked) | 3.36 |
| COc1ccc(N(CC(=O)NCc2ccco2)S(=O)(=O)c2ccc(OC)c(OC)c2)cc1 | 2.83 |
| Cc1cc(C)nc(N2CCC(C(=O)Nc3cccc(C(F)(F)F)c3)CC2)n1 | -9.81 |
| Cl.ClC(CCN1CCN(Cc2ccccc2)CC1)c1ccccc1 (centres unmarked) | 2.91 |
| Cc1ccc(NC(=O)CN(C)C(=O)COC(=O)/C=C/c2cccs2)cc1 | 12.2 |
| Cc1cc(F)ccc1S(=O)(=O)NCC(c1ccc2c(c1)OCO2)N1CCOCC1 (centres unmarked) | 3.18 |
| CCCCC(=O)N1CCN(c2nc3ccc(Cl)cc3s2)CC1 | -19.3 |
| CSCCC(NC(=O)COc1ccccc1)C(=O)NCCOc1ccccc1 (centres unmarked) | 13.8 |
| C=CCOc1cccc(C2C(C(=O)c3ccco3)=C(O)C(=O)N2CCN2CCOCC2)c1 (centres unmarked) | 11.9 |
| Cc1ccc(O)c(NC(=S)NC(=O)/C=C/c2ccccc2)c1 | 17 |
| COc1cc(/C=N/NC(=S)NCC2CCCO2)cc(OC)c1OC (centres unmarked) | 0.431 |
| CCN(C(=O)CN1CCN(C)CC1)c1cccc2ccccc12.O=C(O)C(=O)O | 7.18 |
| CC1(C)Cc2noc(N)c2C(C)(C)N1OC(=O)c1ccccc1 | 5.24 |
| Oc1ccc(/C=N/Nc2nc(-c3ccc(Cl)cc3)cc(C(F)(F)F)n2)cc1 | 2.87 |
| Cc1ccc(OCC(=O)Nc2cccc(S(=O)(=O)N3CCCCCC3)c2)c([N+](=O)[O-])n1 | -5.98 |
| O/N=C1/CCSc2ccccc21 | 8.39 |
| CC1(C)CC(=O)c2sc(NC(=O)CN3C(=O)CCC3=O)nc2C1 | 9.18 |
| COc1cccc(NC(=O)Nc2ccc3c(c2)OCO3)c1 | 16.8 |
| Cc1ccccc1CC1(CO)CCCN(C(=O)CCCN2CCCCC2=O)C1 (centres unmarked) | 7.31 |
| Clc1ccc2c(c1)[C@H]1OCC[C@H]1[C@@H](c1ccco1)N2 | 3.66 |
| COc1ccc(S(=O)(=O)N2CCC(n3cnc4cc(C(F)(F)F)ccc43)CC2)cc1 | -48.1 |

| SMILES | hERG current change (%, negative = inhibition) at 1uM [%] |
| --- | --- |
| COC(=O)CCCn1c(C)cc(C(=O)CCl)c1C | 5.38 |
| Cc1nccn1CC(=O)N/N=C/c1c[nH]c2ccccc12 | 9.58 |
| CC(=O)c1ccc(N2CCN(CC(O)COCc3ccco3)CC2)cc1 (centres unmarked) | -29.3 |
| O=C(CC1Oc2ccccc2NC1=O)NCCCN1CCN(Cc2ccccc2)CC1 (centres unmarked) | 0.886 |
| Cc1cc(Nc2ccc(O)cc2)n2c(nc3ccccc32)c1C#N | 9.2 |
| CCNC(=O)COc1ccc2ccccc2c1 | 12.9 |
| CCOC(=O)Cc1c(C)nc(N)[nH]c1=O | 12.1 |
| CCC(NC(=O)c1ccccc1Br)c1ccccc1 (centres unmarked) | 9.2 |
| O=C(NCCN1CCOCC1)c1ccc(Cl)cc1 | 15 |
| CC1=C(C)CC2(SC1)C(=O)N(c1ccccc1)N=C2N (centres unmarked) | -5.83 |
| CN(CCC1CCCCO1)C(=O)CCc1nnc(Cc2c[nH]c3ccccc23)o1 (centres unmarked) | 5.84 |
| OCCC1CN(Cc2ccc(F)cc2)CCN1CCc1ccccc1 (centres unmarked) | -48 |
| CC(C)(C)NC(=O)C1CCCN(S(=O)(=O)c2cccc3cccnc23)C1 (centres unmarked) | 9.22 |
| Cc1oc(C(N)=O)cc1COc1ccc(C(N)=O)cc1 | 11.9 |
| C=CC(COCc1ccccc1)N(Cc1ccccc1)S(=O)(=O)c1ccccc1Br (centres unmarked) | 10.1 |
| CN1CCC(=NNC(=O)C(=O)Nc2ccccc2)CC1 | 5.74 |
| COc1ccccc1N(CC(O)CN1CCCC1)S(=O)(=O)c1ccccc1 (centres unmarked) | 1.5 |
| COc1cc(C(=O)NCc2cccc(Cl)c2)ccc1OCC(=O)N1CCOCC1 | -0.185 |
| COCCSc1nc(N)c(NC(=O)c2ccc(OC)cc2)c(=O)[nH]1 | 17.3 |
| CCOC(=O)CC1C(=O)NCCN1c1nc2ccc(C)cn2c(=O)c1/C=C1\SC(=S)N(C(C)CC)C1=O (centres unmarked) | 11.1 |
| O=S(=O)(NC1CCN(Cc2ccccc2)CC1)c1ccc(Cl)cc1 | 9.8 |
| CCN(CC)P(=O)(Nc1cccc(C(F)(F)F)c1)c1ccc(N(C)C)cc1NC(=O)c1ccco1 (centres unmarked) | 12.1 |

| SMILES | hERG current change (%, negative = inhibition) at 1uM [%] |
| --- | --- |
| COc1cc(/C=C/C(=O)OCC(=O)NCc2ccco2)cc(OC)c1OC | 7.23 |
| CCCC1(c2ccccc2)NC(=O)N(CC(=O)c2[nH]c(C)c(C(=O)OCC)c2C)C1=O (centres unmarked) | 7.22 |
| CCC(C(=O)NCc1ccco1)n1nc(C)c2c(C)n(-c3ccccc3)nc2c1=O (centres unmarked) | 7.02 |
| COc1cccc(/C=C/C(=O)Nc2ccc(N3CCOCC3)cc2)c1OC | 0.898 |
| Cn1c(S(=O)(=O)c2ccc([N+](=O)[O-])cc2)nc(Br)c1Br | 16.1 |
| COc1cc(-c2nnc(CSc3nnc(Nc4ccc(C(C)C)cc4)s3)o2)cc(OC)c1OC | 8.97 |
| Cc1ccc(NC(=O)CN2CCOCC2)cc1Cl | 10.3 |
| CN(Cc1cn(C)nc1-c1ccc(Oc2ccccc2)cc1)CC1COCCO1 (centres unmarked) | -3.26 |
| CC(=O)c1cccc(CN2CCCC(C(=O)Nc3cccc(-n4cccn4)c3)C2)c1 (centres unmarked) | 9.28 |
| CCOC(=O)Nc1nnc(-c2ccc(OC)c(OC)c2)s1 | 11.4 |
| C=CCn1c(SCC(=O)NCc2ccccc2)nnc1-c1ccccc1O | -0.209 |
| CCOc1ccc(CCNC(=O)COC(=O)c2ccc3c(c2)OCCO3)cc1OCC | 11 |
| CC(C)Cc1nnc(NC(=O)CCC(=O)N2CCOCC2)s1 | 0.0241 |
| Clc1cccc(CSc2nnc(-c3ccccn3)n2Cc2ccco2)c1 | 9.48 |
| CCN(CC(=O)Nc1ccc2c(c1)OCCO2)C(=O)c1ccc([N+](=O)[O-])s1 | 4.78 |
| CC(C)Oc1cccc(C(=O)C2CCCN(C(=O)c3cc(C(F)(F)F)[nH]n3)C2)c1 (centres unmarked) | 11.2 |
| COC(=O)c1ccccc1S(=O)(=O)N1CCC(C(=O)NC2CCCCC2C)CC1 (centres unmarked) | 10 |
| O=C1NC(Cc2ccccc2)C(=O)N1Cc1cc([N+](=O)[O-])cc2c1OCOC2 (centres unmarked) | 10 |
| CC(=O)Nc1nonc1-c1nc2ccccc2n1Cc1ccccn1 | 5.58 |
| C#CCOCCOCCOCCNc1nc(N2CCN(C(=O)CCCCCCCCCCNC(=O)Cn3cc(C[C@@H](C)O)nn3)CC2)nc(N2CCN(C(=O)CCCCCCCCCCNC(=O)[C@@H](CCC(=O)O)n3cc(CCCCCN)nn3)CC2)n1 | 13.4 |
